Experimental data taken from US20190298770A1 (IOVANCE BIOTHERAPEUTICS, published 2019).

B1: 38A1-scFV-Fc (Fc fusion)
chain: EVQLVESGGGLVQPGGSLRLSCAASGFTFSNYAMSWVRQAPGKGLEWVSTISGSGGTTYYADSVKGRFTISRDNSKNTLYLQMNSLRVEDTAVYYCAKDWFRSSSPDAFDIWGQGTTVTVSAGGGGSGGGGSGGGGSGAPSYVLTQPPSVSVAPGQTARITCGGNNIGRKIVHWYQQRPGQAPVLVIYYDTDRPAGIPERFSGSNSGNMATLTISTVGAGDEADYYCQVWDTGSDHVVFGGGTKLTVLGPRANFVYKSGPR[letters of human IgG1 Fc left out]
notes: Secreted from transduced cells; also called 38A1-Fc; 38A1-seFV-Fe
B2: 19H9-scFV-Fc (Fc fusion)
chain: QVQLQESGGGLVKPGGSLRLSCAASGFTFSSYSMNWVRQAPGKGLEWVSGINTAGDTHYPESVKGRFTISRDNARNSLNLQMNSLRAEDTAVYYCVRERVEREYSGYDAFDIWGQGTTVTVSAGGGGSGGGGSGGGGSGAPNFMLTQPHSVSESLGKTVTISCTGSSGSIARKFVQWYQQRPGSSPTTVIYENNQRPSGVSDRFSGSIGSSSNSASLTISGLKTEDEADYYCQSYDSSNVVFGGGTKVTVLGPRANFVYKSGPR[letters of human IgG1 Fc left out]
notes: also called 19H9-Fc; 19H9-seFV-Fe

Experiments:
[1] = target: T1, Programmed Death 1 Ligand 1 (PD-L1) (human, UniProt Q9NZQ7); assay: cell-based or functional assay
[2] = target: T1, Programmed Death 1 Ligand 1 (PD-L1); assay: cell based ELISA on 293-PD-L1, HRP anti-human Fcγ, OD450. No unit stands beside the number. Panel B has no axis title and the same -3 to 2 scale as panel A (log nM). The curve crosses half height (OD450 about 1.1) near log -0.9. [panel B]
T1 sequence (Q9NZQ7 19-290): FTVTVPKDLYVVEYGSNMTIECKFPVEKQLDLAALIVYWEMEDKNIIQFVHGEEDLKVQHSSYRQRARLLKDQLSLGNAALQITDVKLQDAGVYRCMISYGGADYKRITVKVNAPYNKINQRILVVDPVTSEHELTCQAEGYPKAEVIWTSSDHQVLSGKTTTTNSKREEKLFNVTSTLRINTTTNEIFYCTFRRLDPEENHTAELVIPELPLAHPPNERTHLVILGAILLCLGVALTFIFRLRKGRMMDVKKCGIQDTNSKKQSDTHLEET

[3] = target: T1, Programmed Death 1 Ligand 1 (PD-L1); assay: flow cytometry of 293-PD-L1 co-cultured 1:1 for 16 hour with Jurkat T-cells secreting the maxibody, Alexa 647 anti-human Fcγ
[4] = target: T1, Programmed Death 1 Ligand 1 (PD-L1); assay: flow cytometry (MFI) of 293-PD-L1 stained with ten-fold concentrated supernatant of TIL lines M1034 and M1015 secreting the maxibody
[5] = target: T1, Programmed Death 1 Ligand 1 (PD-L1); assay: cell based ELISA on 293-PD-L1, HRP anti-human Fcγ, OD450. No unit stands beside the number: nM is taken from the axis title 'Maxibody Concentration (log nM)'. The curve crosses half height (OD450 about 1.0) near log -0.4. [panel A]

Row | Binder | capacity to induce bioluminescent activity, fold against 19H9-scFV-Fc [1] | EC50 [2] | fold increase of mean fluorescent intensity against FMC63-scFV-Fc [3] | fold increase of binding against FMC63-scFV-Fc [4] | EC50 [5]
1 | B1 | > 3.6 fold | 125 pM | 300 fold | > 50 fold | 
2 | B2 |  |  | 100 fold |  | 404 pM
